# Reference: the supplement of paper PMC8728848
# This is one part of the list.
# Columns and labels:
# Assay in all cases: glycan array binding signal (z-score within array); higher = stronger binding
# Settings in all cases: glycan notation: IUPAC condensed, linker removed
# [1] = target: Neu5Ac(a2-3)Gal(b1-4)GlcNAc(b1-6)GalNAc
# Summary of the method: (§1)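 Negative Z-scores can be read as non-binding. The Z-score is calculated within each array and then averaged across arrays of one protein sequence at different concentrations or buffers and across linkers. Arrays, 3228 in all, were curated from the Consortium for Functional Glycomics database and kept only where the protein sequence was available.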
# [2] = target: Neu5Ac(a2-3)Gal(b1-4)GlcNAc(b1-6)[Gal(b1-3)]GalNAc
# Summary of the method: as §1
# [3] = target: Neu5Ac(a2-3)Gal(b1-4)GlcNAc(b1-6)[Neu5Ac(a2-3)Gal(b1-3)]GalNAc
# Summary of the method: as §1
# [4] = target: Neu5Ac(a2-3)Gal(b1-4)GlcNAc6S
# Summary of the method: as §1
# [5] = target: Neu5Ac(a2-3)Gal(b1-4)[Fuc(a1-3)]GlcNAc
# Summary of the method: as §1
# [6] = target: Neu5Ac(a2-3)Gal(b1-4)[Fuc(a1-3)]GlcNAc(b1-2)Man
# Summary of the method: as §1
# [7] = target: Neu5Ac(a2-3)Gal(b1-4)[Fuc(a1-3)]GlcNAc(b1-3)Gal
# Summary of the method: as §1
# [8] = target: Neu5Ac(a2-3)Gal(b1-4)[Fuc(a1-3)]GlcNAc(b1-3)Gal(b1-4)GlcNAc
# Summary of the method: as §1
# [9] = target: Neu5Ac(a2-3)Gal(b1-4)[Fuc(a1-3)]GlcNAc(b1-3)Gal(b1-4)[Fuc(a1-3)]GlcNAc(b1-3)Gal(b1-4)[Fuc(a1-3)]GlcNAc
# Summary of the method: as §1
# [10] = target: Neu5Ac(a2-3)Gal(b1-4)[Fuc(a1-3)]GlcNAc(b1-3)GalNAc
# Summary of the method: as §1
# [11] = target: Neu5Ac(a2-3)Gal(b1-4)[Fuc(a1-3)]GlcNAc(b1-6)[Gal(b1-3)]GalNAc
# Summary of the method: as §1
# [12] = target: Neu5Ac(a2-3)Gal(b1-4)[Fuc(a1-3)]GlcNAc(b1-6)[Neu5Ac(a2-3)Gal(b1-3)]GalNAc
# Summary of the method: as §1
# [13] = target: Neu5Ac(a2-3)Gal(b1-4)[Fuc(a1-3)]GlcNAc6S
# Summary of the method: as §1
# [14] = target: Neu5Ac(a2-3)Gal6S(b1-4)GlcNAc
# Summary of the method: as §1
# [15] = target: Neu5Ac(a2-3)Gal6S(b1-4)[Fuc(a1-3)]GlcNAc
# Summary of the method: as §1
# Neu5Ac(a2-3)GalNAc = target: Neu5Ac(a2-3)GalNAc
# Summary of the method: as §1
# [16] = target: Neu5Ac(a2-3)GalNAc(b1-4)GlcNAc
# Summary of the method: as §1
# [17] = target: Neu5Ac(a2-3)[GalNAc(b1-4)]Gal(b1-4)Glc
# Summary of the method: as §1
# [18] = target: Neu5Ac(a2-3)[GalNAc(b1-4)]Gal(b1-4)GlcNAc
# Summary of the method: as §1
# [19] = target: Neu5Ac(a2-3)[GalNAc(b1-4)]Gal(b1-4)GlcNAc(b1-3)GalNAc
# Summary of the method: as §1
# [20] = target: Neu5Ac(a2-3)[Neu5Ac(a2-6)]GalNAc
# Summary of the method: as §1
# Neu5Ac(a2-6)Gal = target: Neu5Ac(a2-6)Gal
# Summary of the method: as §1
# [21] = target: Neu5Ac(a2-6)Gal(b1-3)GlcNAc(b1-3)[Gal(b1-4)GlcNAc(b1-6)]Gal(b1-4)Glc
# Summary of the method: as §1
# Neu5Ac(a2-6)Gal(b1-4)Glc = target: Neu5Ac(a2-6)Gal(b1-4)Glc
# Summary of the method: as §1
# [22] = target: Neu5Ac(a2-6)Gal(b1-4)GlcNAc
# Summary of the method: as §1
# [23] = target: Neu5Ac(a2-6)Gal(b1-4)GlcNAc(b1-2)Man
# Summary of the method: as §1
# [24] = target: Neu5Ac(a2-6)Gal(b1-4)GlcNAc(b1-2)Man(a1-3)Man(b1-4)GlcNAc(b1-4)GlcNAc
# Summary of the method: as §1
# [25] = target: Neu5Ac(a2-6)Gal(b1-4)GlcNAc(b1-2)Man(a1-3)[Gal(b1-4)GlcNAc(b1-2)Man(a1-6)]Man(b1-4)GlcNAc(b1-4)GlcNAc
# Summary of the method: as §1
# [26] = target: Neu5Ac(a2-6)Gal(b1-4)GlcNAc(b1-2)Man(a1-3)[GlcNAc(b1-2)Man(a1-6)]Man(b1-4)GlcNAc(b1-4)GlcNAc
# Summary of the method: as §1
# [27] = target: Neu5Ac(a2-6)Gal(b1-4)GlcNAc(b1-2)Man(a1-3)[GlcNAc(b1-4)][Neu5Ac(a2-6)Gal(b1-4)GlcNAc(b1-2)Man(a1-6)]Man(b1-4)GlcNAc(b1-4)GlcNAc
# Summary of the method: as §1
# [28] = target: Neu5Ac(a2-6)Gal(b1-4)GlcNAc(b1-2)Man(a1-3)[Man(a1-6)]Man(b1-4)GlcNAc(b1-4)GlcNAc
# Summary of the method: as §1
# [29] = target: Neu5Ac(a2-6)Gal(b1-4)GlcNAc(b1-2)Man(a1-3)[Neu5Ac(a2-3)Gal(b1-4)GlcNAc(b1-2)Man(a1-6)]Man(b1-4)GlcNAc(b1-4)GlcNAc
# Summary of the method: as §1
# [30] = target: Neu5Ac(a2-6)Gal(b1-4)GlcNAc(b1-2)Man(a1-3)[Neu5Ac(a2-6)Gal(b1-4)GlcNAc(b1-2)Man(a1-6)]Man(b1-4)GlcNAc(b1-4)GlcNAc
# Summary of the method: as §1
# [31] = target: Neu5Ac(a2-6)Gal(b1-4)GlcNAc(b1-2)Man(a1-3)[Neu5Ac(a2-6)Gal(b1-4)GlcNAc(b1-2)Man(a1-6)]Man(b1-4)GlcNAc(b1-4)[Fuc(a1-6)]GlcNAc
# Summary of the method: as §1
# [32] = target: Neu5Ac(a2-6)Gal(b1-4)GlcNAc(b1-2)Man(a1-6)Man(b1-4)GlcNAc(b1-4)GlcNAc
# Summary of the method: as §1
# [33] = target: Neu5Ac(a2-6)Gal(b1-4)GlcNAc(b1-2)Man(a1-6)[Gal(b1-4)GlcNAc(b1-2)Man(a1-3)]Man(b1-4)GlcNAc(b1-4)GlcNAc
# Summary of the method: as §1
# [34] = target: Neu5Ac(a2-6)Gal(b1-4)GlcNAc(b1-2)Man(a1-6)[GlcNAc(b1-2)Man(a1-3)]Man(b1-4)GlcNAc(b1-4)GlcNAc
# Summary of the method: as §1
# [35] = target: Neu5Ac(a2-6)Gal(b1-4)GlcNAc(b1-2)Man(a1-6)[Man(a1-3)]Man(b1-4)GlcNAc(b1-4)GlcNAc
# Summary of the method: as §1
# [36] = target: Neu5Ac(a2-6)Gal(b1-4)GlcNAc(b1-2)[Neu5Ac(a2-6)Gal(b1-4)GlcNAc(b1-4)]Man(a1-3)[GlcNAc(b1-4)][Neu5Ac(a2-6)Gal(b1-4)GlcNAc(b1-2)[Neu5Ac(a2-6)Gal(b1-4)GlcNAc(b1-6)]Man(a1-6)]Man(b1-4)GlcNAc(b1-4)GlcNAc
# Summary of the method: as §1
# [37] = target: Neu5Ac(a2-6)Gal(b1-4)GlcNAc(b1-2)[Neu5Ac(a2-6)Gal(b1-4)GlcNAc(b1-4)]Man(a1-3)[GlcNAc(b1-4)][Neu5Ac(a2-6)Gal(b1-4)GlcNAc(b1-4)Man(a1-6)]Man(b1-4)GlcNAc(b1-4)GlcNAc
# Summary of the method: as §1
# [38] = target: Neu5Ac(a2-6)Gal(b1-4)GlcNAc(b1-2)[Neu5Ac(a2-6)Gal(b1-4)GlcNAc(b1-6)]Man(a1-6)[Neu5Ac(a2-6)Gal(b1-4)GlcNAc(b1-2)Man(a1-3)][GlcNAc(b1-4)]Man(b1-4)GlcNAc(b1-4)GlcNAc
# Summary of the method: as §1
# [39] = target: Neu5Ac(a2-6)Gal(b1-4)GlcNAc(b1-3)Gal(b1-3)GlcNAc
# Summary of the method: as §1
# [40] = target: Neu5Ac(a2-6)Gal(b1-4)GlcNAc(b1-3)Gal(b1-4)GlcNAc
# Summary of the method: as §1
# [41] = target: Neu5Ac(a2-6)Gal(b1-4)GlcNAc(b1-3)Gal(b1-4)GlcNAc(b1-2)Man(a1-3)[Neu5Ac(a2-6)Gal(b1-4)GlcNAc(b1-3)Gal(b1-4)GlcNAc(b1-2)Man(a1-6)]GalNAc
# Summary of the method: as §1
# [42] = target: Neu5Ac(a2-6)Gal(b1-4)GlcNAc(b1-3)Gal(b1-4)GlcNAc(b1-3)Gal(b1-4)GlcNAc
# Summary of the method: as §1
# [43] = target: Neu5Ac(a2-6)Gal(b1-4)GlcNAc(b1-3)Gal(b1-4)GlcNAc(b1-3)Gal(b1-4)GlcNAc(b1-2)Man(a1-3)[Neu5Ac(a2-6)Gal(b1-4)GlcNAc(b1-3)Gal(b1-4)GlcNAc(b1-3)Gal(b1-4)GlcNAc(b1-2)Man(a1-6)]GalNAc
# Summary of the method: as §1
binder,measurement,setting,value
PX9961T-pdi-555-33-555 (Parabacteroides distasonis) (protein) FDEETAFQSPTLVYVNTVASLYNNMFKIMGNDRHVYDLNTFSSDEAMLPCRIGDWEDGGLWQNIFLHRWGTMNDLTKNSWDFLYEQIGKCNQSVDKLQAFAEEQPDVEYFKVYLEEVRAVRAFFYYELLDLFARVPLVTSSTTPMSEVKQSERSVVFNFVRSELEEALPYLSDNRSNQKGEYYGRITKPVAYMILAKLALNAEVYADDNWTDGNRPAGKNIKFTVDGKEMNAWEATIAYVDKLEALGYKLQGNFSENFAVANETSVENIFTVPMDPVAYPDAKDYNLVRTRHYDHATAYGQSGWNGSCATVKAMNVFKFGTADEDPRCKLTYFTGEVTGPDGKTIYTEWDGQKVPLKYEPNAPKVYMDASDGLLVKTAGARMAKYEFDQNAQDGGNLHGNDCVIFRFADALLMKAEAKIRLGQNGDDEVNQVRNRVGAKPLQNVTLDTLLDERMLELAWEGVRRQDLIRFGKFTEATVDRYVGVKHFASSLDYQEDKTGYTTVFSIYADILSLNPNLTQNPGY,glycan array binding signal (z-score),[1],0.316
same,glycan array binding signal (z-score),[2],-0.463
same,glycan array binding signal (z-score),[3],1.08
same,glycan array binding signal (z-score),[4],-0.441
same,glycan array binding signal (z-score),[5],-0.204
same,glycan array binding signal (z-score),[6],-0.709
same,glycan array binding signal (z-score),[7],-0.663
same,glycan array binding signal (z-score),[8],0.388
same,glycan array binding signal (z-score),[9],0.523
same,glycan array binding signal (z-score),[10],1.68
same,glycan array binding signal (z-score),[11],-0.177
same,glycan array binding signal (z-score),[12],-0.333
same,glycan array binding signal (z-score),[13],-0.587
same,glycan array binding signal (z-score),[14],-0.416
same,glycan array binding signal (z-score),[15],-0.515
same,glycan array binding signal (z-score),Neu5Ac(a2-3)GalNAc,-0.359
same,glycan array binding signal (z-score),[16],-0.846
same,glycan array binding signal (z-score),[17],1.56
same,glycan array binding signal (z-score),[18],-0.018
same,glycan array binding signal (z-score),[19],0.061
same,glycan array binding signal (z-score),[20],-0.416
same,glycan array binding signal (z-score),Neu5Ac(a2-6)Gal,-0.557
same,glycan array binding signal (z-score),[21],0.11
same,glycan array binding signal (z-score),Neu5Ac(a2-6)Gal(b1-4)Glc,-0.648
same,glycan array binding signal (z-score),[22],0.788
same,glycan array binding signal (z-score),[23],-0.049
same,glycan array binding signal (z-score),[24],-0.412
same,glycan array binding signal (z-score),[25],-0.369
same,glycan array binding signal (z-score),[26],-0.536
same,glycan array binding signal (z-score),[27],-0.122
same,glycan array binding signal (z-score),[28],-0.375
same,glycan array binding signal (z-score),[29],-0.499
same,glycan array binding signal (z-score),[30],0.01
same,glycan array binding signal (z-score),[31],-0.612
same,glycan array binding signal (z-score),[32],-0.818
same,glycan array binding signal (z-score),[33],-0.455
same,glycan array binding signal (z-score),[34],0.259
same,glycan array binding signal (z-score),[35],-0.48
same,glycan array binding signal (z-score),[36],-0.237
same,glycan array binding signal (z-score),[37],0.046
same,glycan array binding signal (z-score),[38],-0.644
same,glycan array binding signal (z-score),[39],0.972
same,glycan array binding signal (z-score),[40],-0.368
same,glycan array binding signal (z-score),[41],0.394
same,glycan array binding signal (z-score),[42],0.075
same,glycan array binding signal (z-score),[43],0.737
